In the supplement of paper PMC3334620:
The full ranking holds about 33,000 sequences; the median of “E-score (-0.5 to 0.5)” is about -0.035, and the highest 2% start at about 0.35. The list shows a part of the results.

What follows are sequences tested against T1, Pdr3 (UniProt P33200) (assay: PBM E-score (8-mer binding enrichment) (E-score (-0.5 to 0.5)); higher = stronger / more preferred TF binding; most listed sequences are background and not binding sites). Conditions: protein concentration: 200 nM; construct: GST-full length.
T1 sequence: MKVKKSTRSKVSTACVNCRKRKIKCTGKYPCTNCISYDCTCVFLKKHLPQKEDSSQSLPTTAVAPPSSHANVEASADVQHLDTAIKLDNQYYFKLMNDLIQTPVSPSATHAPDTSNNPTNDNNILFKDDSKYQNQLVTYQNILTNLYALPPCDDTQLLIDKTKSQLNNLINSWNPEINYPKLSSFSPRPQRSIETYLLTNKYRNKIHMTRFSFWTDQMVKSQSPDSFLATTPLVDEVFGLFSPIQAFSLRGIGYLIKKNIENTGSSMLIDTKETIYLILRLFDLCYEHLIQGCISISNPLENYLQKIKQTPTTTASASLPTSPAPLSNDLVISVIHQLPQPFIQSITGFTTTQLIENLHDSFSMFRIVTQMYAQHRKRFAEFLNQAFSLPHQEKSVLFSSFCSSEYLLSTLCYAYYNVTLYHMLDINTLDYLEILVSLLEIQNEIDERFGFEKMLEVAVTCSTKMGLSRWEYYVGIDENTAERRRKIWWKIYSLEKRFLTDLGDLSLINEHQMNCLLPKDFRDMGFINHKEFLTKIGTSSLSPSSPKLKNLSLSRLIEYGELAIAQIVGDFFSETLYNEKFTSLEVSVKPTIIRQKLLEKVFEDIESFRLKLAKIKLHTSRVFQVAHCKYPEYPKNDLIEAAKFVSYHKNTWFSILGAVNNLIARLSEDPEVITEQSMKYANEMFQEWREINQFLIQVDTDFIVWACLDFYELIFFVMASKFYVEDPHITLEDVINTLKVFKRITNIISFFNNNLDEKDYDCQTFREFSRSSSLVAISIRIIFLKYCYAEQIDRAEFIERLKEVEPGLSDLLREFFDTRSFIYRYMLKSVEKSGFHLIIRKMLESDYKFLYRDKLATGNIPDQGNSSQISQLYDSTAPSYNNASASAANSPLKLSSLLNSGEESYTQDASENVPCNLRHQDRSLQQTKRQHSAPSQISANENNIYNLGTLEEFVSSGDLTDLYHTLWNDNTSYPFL
Outline: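 The E-score, a modified Wilcoxon-Mann-Whitney statistic, was computed by the Universal PBM Analysis Suite for every ungapped eight-base word pooled with its reverse complement. Scans behind it were normalised with masliner after bound GST-tagged yeast transcription factors were detected with fluorescent anti-GST. The proteins, at about 100-200 nM, had been applied to universal all-10-mer Agilent arrays made double-stranded by primer extension.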

Sequence | PBM E-score
CTTGACCC | -0.017
AGATCAGG | -0.169
GTTCTATA | -0.0539
CTTCATGC | 0.0311
AGCGTCAC | -0.106
ACCGCCAG | 0.1
AAGTGACG | -0.0359
GAAAGTAA | 0.0331
ACATCGGT | -0.135
AAGAGCAA | -0.123
CCCATAGA | -0.247
CGCTAAAA | 0.00276
GTGCGCAC | 0.258
CCTGATAG | -0.219
ATCGGTCC | 0.263
AGAGCTCG | 0.0679
GTCTCGGA | 0.306
AGGCTTGC | -0.261
CTTCAGGA | 0.0815
AGTCAAAA | -0.104
CCAGCATA | -0.219
ACACTTCA | 0.0528
ATGATTCC | 0.304
GAGTCGAA | 0.186
GGCGCGTA | -0.0855

Sequence | PBM E-score
GATATTCC | 0.329
CCCCCCTA | -0.344
CGCATATA | -0.147
TATGCACA | -0.16
ACTTTACC | -0.0379
TGGGATAA | -0.102
TCCTAGGA | 0.0261
CCTCGTCG | 0.108
CAGGGGTC | -0.165
TGGAGCCA | -0.343
AGATAGGC | -0.16
TACTAAGA | -0.0607
AAGACTGG | -0.198
CGACAGAG | -0.213
CGAGTCCG | 0.309
CTGGAAAA | 0.144
CTGCGGAC | 0.1
CTAGTTAA | -0.182
AACTCGGC | 0.24
GGGTCCAC | -0.0965
ACTGCAGA | -0.0799
ACCACAGC | -0.0777
TCGTGACA | 0.00277
CCCCCGGG | 0.364
GGAGCAGA | 0.0813

Sequence | PBM E-score
AGAAGGTC | 0.0619
GAGGTGGA | -0.00656
GCCGAGGA | 0.313
ACCGAAGG | -0.0364
AGAAGTAT | 0.0303
CGCGTAGA | -0.0879
AGCACGGG | 0.131
CATACCTA | -0.127
CAATAGAG | -0.166
ACGTGCCG | 0.226
GCGGGCCC | 0.247
CCCTCTTC | -0.151
ATTCCCAA | -0.0687
ACTGCTCA | -0.0736
GGTCCTTA | 0.0165
AGATTCCG | 0.453
GAAAACCA | -0.103
ATCGCATA | -0.00724
ATGGGATA | -0.116
TGACTCAA | -0.25
ATCCAAAT | -0.121
AGTTCCGC | 0.467
ACGAGGAT | -0.307
CTCCTTAC | -0.269
AGCGTCCT | -0.285

Sequence | PBM E-score
GTTTTTCA | 0.0118
ACATTAAC | -0.0279
GTCCTCAC | -0.0494
CTCGTCTA | -0.224
AAGTACAC | -0.0495
ATAGGCCC | -0.105
AAGCAATA | -0.0544
AACGGCTA | 0.013
GGCAGAAA | 0.174
CGCTAGTC | -0.336
ATTCAAGA | -0.0769
GACGAACA | 0.151
CAAAAGGA | -0.171
CGCACATA | -0.119
AGAGAGCT | -0.335
CCAGGCCG | 0.0672
AGTTGGGG | 0.0491
CAACGTCG | -0.0264
GACGCGGA | 0.228
ATGTGCTC | 0.0809
ATCCCATG | 0.0213
ATACACTC | 0.0426
CTCAAGGC | -0.0779
GTGAGGGA | -0.118
TAAGCACA | 0.108

Sequence | PBM E-score
GTCCTCAA | -0.1
AATTCTGA | -0.0763
CGGGTCCC | 0.227
AGGAGAAC | -0.0499
CGTTGTAC | -0.129
ATGGAGTA | 0.0718
ATCCAGCA | -0.318
CCGCATAC | 0.19
GGTCAGCA | -0.0188
GCGTATAC | -0.156
AAGCTCGA | 0.103
ACTGTTAC | -0.209
CAGTGAAA | 0.0387
ATGTCTGA | -0.106
ATGTCGTG | -0.211
AGTTATAA | -0.262
CTAATTCA | -0.147
CGCATGTA | -0.137
CGTACAAG | -0.101
GGTTTGGA | -0.0505
CATATTAA | -0.0147
ACAGCCGG | 0.299
ACCAAGCA | -0.112
AGTTATGC | -0.0653
ACCGCCTA | -0.0211

Sequence | PBM E-score
ACAGCACC | -0.0246
CCATTTTC | 0.0618
ATTCGCGA | 0.0307
CCCCCCCG | -0.317
AAAAGCCT | -0.306
ATAGTCAT | -0.0921
GAAGTCAA | -0.0201
AGCCTTTC | -0.167
ATTCAACA | 0.0845
CCTTTAAC | 0.0603
AATCCTTA | -0.292
CACGCTCC | -0.0847
CAGATATA | 0.0615
CGAATCCG | 0.249
AGATCGGA | 0.394
CCTGATTA | 0.0294
AATTGTCC | 0.0741
ACAGTACA | -0.00617
ACACAAAG | -0.173
CAAGTATG | -0.165
TCGAGCGA | 0.184
CCGCACAC | 0.00515
CAAATCAA | -0.0555
AGCCTCCC | -0.0862
ATACACTA | -0.082

Sequence | PBM E-score
ATGTGGCG | 0.0952
GCCCTCGC | -0.0501
GTGTATAA | -0.315
CCCGGGCC | 0.397
CCGACTGA | 0.0283
CACACTCA | 0.0355
AATAGGGT | -0.108
CCGACGCC | 0.224
CAAGGACG | -0.11
ACCTAACA | 0.0831
GCTGCACA | -0.195
ACTTGAGG | -0.168
GAAACGAC | -0.0196
AAAAAAAC | -0.109
ACCCCGTA | 0.006
CCTTTTTC | 0.0815
GTAGTTTA | -0.0103
GAATAGCA | 0.0671
AGACAGTG | -0.117
AGACTTTA | -0.227
GAAATCTA | 0.0572
AGCACAGA | -0.0342
